In PubChem BioAssay AID686970 (National Center for Advancing Translational Sciences (NCATS), 2013):
Hit rate of the full screen: of about 360,000 compounds, about 6,000 (1.7%) were called active. Inconclusive results, whose numbers are uncertain, are shown with a selection of clear calls. Calls come from the whole dose curve; as a rule, active = well fitted cell-killing curve with a large enough effect; inconclusive = small, poorly fitted or top-dose-only effect, or effect the other way; inactive = flat fitted curve, though single readings scatter. Potencies of inconclusive entries are left out as doubtful fits.

Assay: qHTS for induction of synthetic lethality in tumor cells producing 2HG: qHTS for the HT-1080-NT fibrosarcoma cell line;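 note: NT is the 2HG producing partner of a matched IDH1 knockdown line; nearly all actives have a fitted effect of over 55% in size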;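 for activity, negative = less viability: 0% = DMSO-treated cells and -100% = media-only wells without cells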
Details: HT-1080-NT fibrosarcoma viability, CellTiter-Glo ATP luminescence, 48 h; activity, negative = less viability: at 46.1 µM (top of the series) unless noted
Method in brief: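 750 cells/well, RPMI + 5% FBS; 2 h settle, compound pin-transfer, 48 h at 37 degrees C. CellTiter-Glo 10 min RT, luminescence. Normalized to DMSO and media-only wells.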
Potency is the fitted concentration of half-maximal effect; tags give direction and shape of the fitted curve.

| SMILES | Potency | activity, negative = less viability |
| --- | --- | --- |
| Clc1ccc(Cl)c(OCCCCN2CCNCC2)c1 | inconclusive [cytotoxic, single point] | – |
| CCCCNc1c(-c2ccc(-c3ccc(C(C)=O)cc3)c(OC)c2)nc2cnccn12 | inconclusive [cytotoxic, single point] | – |
| CCOc1ccc(-c2csc3ncn(-c4ccc(OC)cc4)c(=O)c23)cc1 | inactive | – |
| CC(Nc1nc(Nc2ccc(F)cc2)nc(SCC(N)=O)n1)c1ccccc1 (centres undefined) | inconclusive [cytotoxic, partial curve] | – |
| CC(=C/c1ccc(C(C)C)cc1)/C=N/NC(=O)CSc1ccccn1 | inactive | – |
| CN=c1scc(-c2ccccc2F)n1/N=C(\C)c1cccnc1 | inconclusive [cytotoxic, single point] | – |
| O=C(C[n+]1ccc(C(=O)N/N=C/c2ccc(Cl)cc2Cl)cc1)c1ccccc1 | inconclusive [cytotoxic, full curve] | – |
| COc1ccc(NC(=O)Nc2cc(C)ccc2F)cc1OC | inconclusive [cytotoxic, single point] | – |
| Oc1ccccc1/C=N/NC(=S)NC1CC2CCC1C2 (centres undefined) | active: 20.6 µM | – |
| Cc1cc2nc(C)n(CCCNC(=O)Nc3ccc(C#N)cc3)c2cc1C | inconclusive [cytotoxic, single point] | – |
| O=C(NC1CCCc2ccccc21)C1CCN(S(=O)(=O)N2CCCCCC2)CC1 (centres undefined) | inactive | – |
| CCOCC(=O)Nc1cc(C(=O)Nc2ccccc2)ccc1Cl | inconclusive [cytotoxic, single point] | – |
| O=C(NC12CC3CC(CC(C3)C1)C2)c1ccc(COc2ccc(Cl)cc2[N+](=O)[O-])o1 | inconclusive [cytotoxic, single point] | – |
| COc1cc2c(C(=O)N3CCOCC3)c(CSc3ccccc3)n(C)c2cc1Br | – | inconclusive: -30.2% [cytotoxic] |
| CC(C)Cc1ccc(CN2CCCC(NC(=O)c3cccc(-n4cnnc4)c3)C2)cc1 (centres undefined) | inconclusive [cytotoxic, partial curve] | – |
| COc1cc(C(=O)NC2CCN(Cc3nnnn3Cc3ccc(F)cc3)CC2)cc(OC)c1OC | – | inconclusive: -32.2% [cytotoxic] |
| Cc1ccc(C2C3=C(CC(C)(C)CC3=O)NC3=C2C(=O)c2ccccc23)cc1 (centres undefined) | inconclusive [cytotoxic, single point] | – |
| CCCC(C)c1nnc(NC(=O)COc2ccc3c(c2)OCO3)s1 (centres undefined) | – | inconclusive: -37.4% [cytotoxic] |
| CC(C)Nc1nc(NCc2ccccc2)c2sccc2n1 | active: 23.1 µM | – |
| CC(=O)c1ccc(-c2cnc3c(NC=O)cc(-c4ccc(N5CCN(C)CC5)cc4)cn23)cc1 | active: 25.9 µM | – |
| COc1ccccc1-c1c(C)nn2c(N3CCN(Cc4ccccc4)CC3)cc(C)nc12 | inconclusive [cytotoxic, single point] | – |
| CC(C)N(C)c1ncnc2c1ncn2[C@H]1CN(Cc2ccc(-c3ccccc3)cc2)C[C@@H](CO)O1 | active: 23.1 µM | – |

| SMILES | Potency | activity, negative = less viability |
| --- | --- | --- |
| O=[N+]([O-])c1cccc(/C=N/Nc2nc(NCc3ccccc3)nc(N3CCOCC3)n2)c1O | inconclusive [cytotoxic, partial curve] | – |
| CCn1c(C)c(/C=N/Nc2nc3ccccc3s2)c2ccccc21 | active: 3.55 µM | – |
| Cc1cc2oc(C(=O)NCCc3ccc(S(N)(=O)=O)cc3)cc(=O)c2cc1C | inconclusive [cytotoxic, single point] | – |
| Fc1ccc(SCCc2ccncc2)cc1 | inactive | – |
| Cc1[nH]c2ccc(C(=O)OC(C)C(=O)NCc3ccccc3)cc2c1C (centres undefined) | inconclusive [cytotoxic, single point] | – |
| Cc1ccc(NCC(=O)N=Nc2c(O)[nH]c3ccc([N+](=O)[O-])cc23)cc1 | inconclusive [cytotoxic, single point] | – |
| Cc1csc(=O)n1CC(=O)OCC(=O)Nc1ccc(C(N)=O)cc1 | inactive | – |
| O=C(/C=C/c1cccs1)Nc1ccc(Br)cn1 | active: 0.116 µM | – |
| COc1ccc(C2CC(=O)c3cnn(-c4nc(C)cc(C)n4)c3C2)cc1 (centres undefined) | inconclusive [cytotoxic, single point] | – |
| COc1cc(CNCCNC(=O)c2nonc2N)ccc1OCc1ccc(Cl)cc1 | inconclusive [cytotoxic, single point] | – |
| CN(Cc1cccc(F)c1)C(=O)CN1C(=O)NC2(CCc3ccccc32)C1=O (centres undefined) | inactive | – |
| O=C(c1ccc(Cl)cc1)C(CN1CCCC1)c1ccccc1 (centres undefined) | active: 18.4 µM | – |
| O=C(CNC(=O)c1ccc(Br)o1)NNC(=O)c1n[nH]c(=O)c2ccccc12 | inactive | – |
| CNc1nc(Nc2ccc(Br)cc2)nc(N)c1[N+](=O)[O-] | – | inconclusive: -36.8% [cytotoxic] |
| Cc1ccc(C2=NOC(=O)/C2=C\C=C\c2ccccc2)cc1 | active: 9.2 µM | – |
| COc1ccc(S(=O)(=O)NCc2csc(C)n2)cc1OC | inactive | – |
| O=C(NC(=S)Nc1ccccc1O)c1cncc(Br)c1 | inconclusive [cytotoxic, full curve, poor fit] | – |
| O=C(C(=O)N1CCN(c2ccccc2)CC1)c1ccncc1 | inactive | – |
| Cc1cc2oc(=O)c(CC(=O)NCCCN(C)C)c(C)c2c2occ(C(C)(C)C)c12 | active: 18.4 µM | – |
| O=C(c1ccccc1)C1OC1C(=O)c1ccccc1 (centres undefined) | inconclusive [cytotoxic, partial curve, poor fit] | – |
| C=C(NC(=O)C(=C)NC(=O)c1csc(C2=NC3c4csc(n4)C4NC(=O)c5csc(n5)C(C(C)(O)C(C)O)NC(=O)C5CSC(=N5)/C(=C/C)NC(=O)C(C(C)O)NC(=O)c5csc(n5)C3(CC2)NC(=O)C(C)NC(=O)C(=C)NC(=O)C(=C)NC(=O)C(C(C)C)NC2C=Cc3c(C(C)O)cc(nc3C2O)C(=O)OC4C)n1)C(N)=O (centres undefined) | inconclusive [cytotoxic, single point] | – |
| COc1ccc(-c2cnc3c(NC=O)cc(-c4cccc(NS(C)(=O)=O)c4)cn23)cc1OC | active: 2.31 µM | – |
